{"source": "patent US20190167593A1", "about": "“C[…] PHARMACEUTICALLY ACCEPTABLE SALT THEREOF, AND APPLICATION OF SAME” (priority 2016, published 2019)", "test_system": "influenza virus PR8", "format": "in vivo", "conditions": "i.m. 150 mg/kg once and 75 mg/kg x5 groups", "data": [{"compound": "CCCCS(=O)(=O)N[C@@H]1CCCN([C@@H]2C=C(C(=O)O)C[C@H](NC(=N)N)[C@H]2NC(C)=O)C1", "note": "[(3R,4R,5S)-4-acetamido-5-guanidino-3-((3R)-3-n-butylsulfonamidopiperidin)-1-cyclohexene-1-carboxylic acid]", "values": [{"measurement": "disease symptoms", "result": "Neither the mice in the treated group administering compound to be tested (#32) once in a dosage of 150 mg/kg and the treated group administering compound to be tested (#32) 5 times in a dosage of 75 mg/kg appeared obvious disease symptoms"}, {"measurement": "deaths / survival", "setting": "within 10 days", "result": "None of the mice in the treated group died"}]}]}
